Test results published in the RNAGym collection of RNA variant scans (doi:10.7554/elife.90254).
The source gives no read counts; variants with many changes may rest on few reads.

B1: OR4K15 (parent)
chain: GUUAACGGUCAUAGGCCAUGGAAACUAGGAGCACCAUUUCGCUGCCAGUGAAGAAAUGAACAAAGAAAAUCUGGGCCAGGCAGGCAUCAAAAGAAAUAGUCUUGCGCUCAACCAGAAAGUCUGUAAUCAUUUUAAGGGUA

Variants of: B1
Test: self-cleavage, relative activity (ratio to wild type); higher = more cleavage; in vitro, sequencing; the parent is a self-cleaving ribozyme
In the case of A60G A91G U108C, the self-cleavage is reported as 0.02.
Work on A60G A92G U102C yielded a self-cleavage of 1.04.
Variant A60G A92U A98G has a self-cleavage of 0.81.
Work on A60G A92U A116U yielded a self-cleavage of 0.11.
Work on A60G A94G U103C A114G yielded a self-cleavage of 0.54.
Work on A60G A95G U127A yielded a self-cleavage of 2.04.
Work on A60G A96G U130C yielded a self-cleavage of 0.98.
A60G A98G U130C gave a self-cleavage of 0.22.
In the case of A60G A111G A126C U132C, the self-cleavage is reported as 0.01.
For A60G A111G A129G, the self-cleavage was 0.02.
With A60G A114G U130C the self-cleavage was 0.04.
With A60G A116G A117G A129G the self-cleavage was 0.12.
A60G A116G U122C showed a self-cleavage of 0.39.
For A60G A117G U120C, the self-cleavage was 0.23.
With A60G C88A A89G U127C the self-cleavage was 0.95.
Work on A60G C101A U122C yielded a self-cleavage of 0.12.
Variant A60G C121U U127C U132C has a self-cleavage of 1.84.
A60G G80A A129G gave a self-cleavage of 0.05.
A60G G83U A95G U127C showed a self-cleavage of 0.09.
A60G U70A C113U gave a self-cleavage of 0.06.
A60G U70A U108A showed a self-cleavage of 0.04.
Variant A60G U72A A82G U103A U120C U124C G137U has a self-cleavage of 0.02.
In the case of A60G U72C A111G, the self-cleavage is reported as 0.02.
Work on A60G U87A A134G yielded a self-cleavage of 1.51.
With A60G U87C A89U the self-cleavage was 1.36.
In the case of A60G U102C G138A, the self-cleavage is reported as 1.49.
For A60G U103A U122C A126G, the self-cleavage was 0.21.
Work on A60G U122C U127C yielded a self-cleavage of 0.71.
Work on A60U A62G A89U yielded a self-cleavage of 0.87.
With A60U A63G A66C A89U the self-cleavage was 2.79.
A60U A63G U130A gave a self-cleavage of 0.65.
A60U A67G A117G gave a self-cleavage of 1.81.
A60U A67G G73A U122C showed a self-cleavage of 0.08.
Variant A60U A69G A94G has a self-cleavage of 1.31.
Variant A60U A92C A110G has a self-cleavage of 0.16.
With A60U A92G A126G the self-cleavage was 1.31.
With A60U A94U A140G the self-cleavage was 1.62.
Work on A60U A111C U132C yielded a self-cleavage of 0.01.
A60U C61U U100C showed a self-cleavage of 2.21.
With A60U C121U A125G the self-cleavage was 1.33.
For A60U U70A A96U, the self-cleavage was 1.14.
A60U U72A U102C gave a self-cleavage of 0.43.
Work on A60U U102C U103C yielded a self-cleavage of 0.
With A60U U120C A134G the self-cleavage was 0.53.
Work on C61A A68G U72A A129U yielded a self-cleavage of 0.18.
For C61A A90G U131C, the self-cleavage was 0.7.
Work on C61G G99U U100C U108C yielded a self-cleavage of 0.
In the case of C61U A63G A64G A68G A94G, the self-cleavage is reported as 1.13.
Work on C61U A64G U108C yielded a self-cleavage of 0.02.
Variant C61U A129G A140U has a self-cleavage of 1.39.
Variant C61U C105U A117G has a self-cleavage of 0.31.
Variant C61U U72C A110G A126G has a self-cleavage of 0.01.
Variant C61U U97C U132C has a self-cleavage of 1.24.
A62C A69C A98U A111G showed a self-cleavage of 0.02.
Work on A62C A118G U131C G136U yielded a self-cleavage of 1.55.
With A62C U72A A86G A116G the self-cleavage was 0.05.
Work on A62C U72G U108C yielded a self-cleavage of 0.
Variant A62G A63C A116G G119A U127C has a self-cleavage of 1.07.
A62G A63G A66G A68G gave a self-cleavage of 0.86.
In the case of A62G A63G A114U, the self-cleavage is reported as 0.1.
A62G A63G U87C A126U showed a self-cleavage of 1.02.
For A62G A63U U70C A91U A98G U102A, the self-cleavage was 0.02.
A62G A64C A68G A116U U139C gave a self-cleavage of 0.13.
In the case of A62G A64G A86G U139C, the self-cleavage is reported as 0.9.
A62G A64G A92G U97A showed a self-cleavage of 1.31.
A62G A64G U103C A117G gave a self-cleavage of 0.55.
A62G A66G A78G U108A showed a self-cleavage of 0.04.
A62G A66G A89G A111G A125G showed a self-cleavage of 0.01.
Variant A62G A66G U87C A114U has a self-cleavage of 0.02.
In the case of A62G A67G A69G A110U, the self-cleavage is reported as 0.54.
In the case of A62G A67G A78G, the self-cleavage is reported as 0.25.
A62G A68C A95U gave a self-cleavage of 1.82.
Variant A62G A68G A91G U131C has a self-cleavage of 0.69.
In the case of A62G A68G G106A, the self-cleavage is reported as 0.02.
In the case of A62G A68U A92U A117G, the self-cleavage is reported as 2.19.
In the case of A62G A68U A110G A116G, the self-cleavage is reported as 0.04.
In the case of A62G A69G A117U, the self-cleavage is reported as 0.48.
For A62G A69G U70C A110G A118G U132C A135U A140G, the self-cleavage was 0.01.
Work on A62G A78G A82G U122C U132C yielded a self-cleavage of 0.03.
Work on A62G A78G G79A A114G U132C yielded a self-cleavage of 0.04.
A62G A78G U131C gave a self-cleavage of 0.14.
In the case of A62G A78U A117U A126U G138A, the self-cleavage is reported as 0.18.
Variant A62G A78U U132C has a self-cleavage of 0.21.
For A62G A82G A89G U120C, the self-cleavage was 0.09.
With A62G A82G A91C A117G the self-cleavage was 0.57.
In the case of A62G A86G U131C, the self-cleavage is reported as 1.05.
Variant A62G A89G U131C has a self-cleavage of 1.33.
In the case of A62G A90G A96U U103C U122C, the self-cleavage is reported as 0.14.
Variant A62G A92G A110U U124C A125G has a self-cleavage of 1.34.
Work on A62G A92G A116G yielded a self-cleavage of 0.72.
For A62G A92G U122C U130C, the self-cleavage was 1.1.
Variant A62G A94G A96G U100C U127C has a self-cleavage of 2.05.
With A62G A98C G99A A140G the self-cleavage was 0.29.
With A62G A111G A117G U122A the self-cleavage was 0.
A62G A111U U127C showed a self-cleavage of 0.04.
A62G A114G U120A gave a self-cleavage of 0.2.
For A62G A116U U122C, the self-cleavage was 0.34.
In the case of A62G A117G A140U, the self-cleavage is reported as 0.98.
For A62G A117U A140G, the self-cleavage was 0.53.
Variant A62G G65C A111G U132C U133A G138U has a self-cleavage of 0.02.
A62G G73A A91G U97A gave a self-cleavage of 0.06.
In the case of A62G G73A U124C, the self-cleavage is reported as 0.1.
A62G G74A A110G showed a self-cleavage of 0.01.
A62G G74U G80A A86G gave a self-cleavage of 0.19.
In the case of A62G G83A A117U, the self-cleavage is reported as 1.07.
Work on A62G U70A U122C U132A yielded a self-cleavage of 1.04.
Work on A62G U72A A82U yielded a self-cleavage of 0.27.
A62G U72C C85U showed a self-cleavage of 0.03.
Work on A62G U87A A118G yielded a self-cleavage of 0.67.
Variant A62G U87C A94G U122C A126G A129G has a self-cleavage of 0.19.
In the case of A62G U87C A95G, the self-cleavage is reported as 2.03.
Work on A62G U87C U102C yielded a self-cleavage of 2.1.
With A62G U100C A110G U127C U131C the self-cleavage was 0.11.
A62G U100C C107U gave a self-cleavage of 0.02.
For A62G U108A A126G U132A U139C, the self-cleavage was 0.
For A62G U108G U131C, the self-cleavage was 0.
In the case of A62G U120C A135U, the self-cleavage is reported as 0.51.
Work on A62G U120C U130A yielded a self-cleavage of 0.73.
In the case of A62G U120C U130C, the self-cleavage is reported as 0.76.
Variant A62U A66G A86U A91G A92G has a self-cleavage of 1.17.
Work on A62U A68G A78G A91G U102A U131G yielded a self-cleavage of 0.02.
Variant A62U A69G A78G U132C has a self-cleavage of 0.19.
For A62U A69U U133C, the self-cleavage was 1.94.
A62U A78U A111G showed a self-cleavage of 0.02.
Work on A62U A82G U87C yielded a self-cleavage of 0.13.
Work on A62U A91G A129C yielded a self-cleavage of 0.91.
Variant A62U A91G G106A A111G U132C has a self-cleavage of 0.
For A62U A92G A110U, the self-cleavage was 0.43.
A62U A94G G138A showed a self-cleavage of 1.59.
With A62U A95G U100C U122C the self-cleavage was 1.61.
With A62U G65A U127A the self-cleavage was 2.8.
A62U G79A A98U gave a self-cleavage of 0.09.
In the case of A62U U70C U127C, the self-cleavage is reported as 0.32.
A62U U87C U108C gave a self-cleavage of 0.01.
In the case of A62U U87G A91G A96G A126U, the self-cleavage is reported as 0.1.
For A63C A82G A114U, the self-cleavage was 0.05.
Variant A63G A64G A96G has a self-cleavage of 0.74.
For A63G A66U A86G, the self-cleavage was 2.04.
A63G A67G A129U showed a self-cleavage of 0.95.
Variant A63G A67G U120C has a self-cleavage of 1.16.
Work on A63G A67U A96G U108C yielded a self-cleavage of 0.
A63G A67U U87C U103C U108C gave a self-cleavage of 0.02.
Work on A63G A68C A118G U122C G137A yielded a self-cleavage of 0.98.
A63G A68G A78U U100C gave a self-cleavage of 0.88.
With A63G A68G A90U G104A the self-cleavage was 0.03.
A63G A68G A95G showed a self-cleavage of 1.48.
A63G A68G U130C gave a self-cleavage of 0.41.
For A63G A69G A82G, the self-cleavage was 0.28.
A63G A69G A135G showed a self-cleavage of 2.43.
With A63G A69U A96G U127A the self-cleavage was 2.17.
For A63G A69U C76U A117G, the self-cleavage was 0.1.
A63G A78C U102C gave a self-cleavage of 0.35.
In the case of A63G A78G A94G A98G, the self-cleavage is reported as 0.16.
Variant A63G A78G A98U A110G has a self-cleavage of 0.01.
In the case of A63G A82U U122A, the self-cleavage is reported as 0.19.
Variant A63G A86G A116G A117G U122C has a self-cleavage of 0.1.
A63G A89U A95G U108G A110G U130C gave a self-cleavage of 0.01.
Variant A63G A91G U127C has a self-cleavage of 1.34.
For A63G A92G U132C G137U, the self-cleavage was 1.75.
Work on A63G A94G U100C yielded a self-cleavage of 2.61.
For A63G A94U A114G U120C U131C, the self-cleavage was 0.07.
Variant A63G A95G A98U has a self-cleavage of 2.67.
A63G A95G U100A A116G A126G gave a self-cleavage of 0.42.
For A63G A95G U130C, the self-cleavage was 1.71.
In the case of A63G A95G U132C, the self-cleavage is reported as 1.98.
Work on A63G A96G U102C U122G yielded a self-cleavage of 1.66.
Work on A63G A114U A125G yielded a self-cleavage of 0.01.
